Hit rate of the full screen: of about 43,000 compounds, about 200 (0.47%) were called active. Roughly 12% stayed inconclusive and do not appear here. Calls come from the whole dose curve; as a rule, active = well fitted cell-killing curve with a large enough effect; inconclusive = small, poorly fitted or top-dose-only effect, or effect the other way; inactive = flat fitted curve, though single readings scatter. This is one part of the list.
% is set by controls: 0 for no effect and ±100 for the full control effect.

The assay can be described thus: Cell viability qHTS assay in S16 Pmp22-F2sN cells. Note: nearly all actives have a fitted effect of over 65% in size. To be noted: S16 Pmp22-F2sN Schwann cells (luciferase reporters placed in the Pmp22 gene) viability, CellTiter-Glo, 24 h; series mostly up to 57.5 µM; activity change, negative = cytotoxicity: at the top concentration. From the text: Assay Provider: Jim Inglese Ph.D. National Center for Advancing Translational Science, National Institutes of Health, Rockville, MD CMT is a heterogeneous group of neurological disorders that affect approximately 1 in 2,500 people. In particular, the most common form of CMT, CMT1A is genetically linked to the duplication of the PMP22 gene which leads to Schwann cell overexpression, thus manifesting itself as a typical case of dose-sensitive diseases. To identify small molecule compounds that can mediate the expression of PMP22 we developed a phenotypic assay screening strategy by utilizing genome editing techniques to construct Schwann cell lines containing novel reporter technology to monitor the transcriptional or translational regulation of PMP22. For high sensitivity we use a bioluminescent reporter system embedded in the 3' UTR of the PMP22 gene (S16(c9) Pmp22-F2sN) to identify compounds that inhibit gene expression. […] We can further discriminate the effect of all transcriptionally active molecules on PMP22 translation or stability with an assay that incorporates a short NLuc peptide (HiBiT) at the C-terminus of expressed PMP22 (S16(f8) PMP22-HiBiT) allowing alpha complementation and luminescence detection of membrane-associated PMP22 protein. These assays were screened against the NCATS Sytravon Library Collection. Miniaturization of these assays to 1536-well plate format for quantitative high throughput screening (qHTS) yielded rich data sets immediately from the qHTS assay (S16(c9) Pmp22-F2sN), when compared with data from a cell viability assay (Cell TiterGlo) to identify compounds that decreased the output signals through cellular toxicity to streamline the selection process of actives for subsequent characterization using the HiBiT assay (S16(f8) PMP22-HiBiT).
Cell viability assay in S16 Pmp22-F2sN cells PROTOCOL TABLE (format as described by Inglese J, Shamu CE and Guy RK. 2007) SEQUENCE No. (e.g., 1, 2, 3, etc.); […] (e.g., Cells, Incubation, Reagent, etc.); VALUE and DESCRIPTION. 1. Cells. Add 500-1,000 cells in 4 uL in growth media (DMEM High Glucose, No Phenol Red media + 10% heat-inactivated FBS + 1% Pen/Strep supplemented media) per well into Greiner 1536-well white/solid bottom high base, TC-treated plates. 2. Compounds. Library compounds and controls added at 23nL per well, transferred by Pin Tool. 3. Incubation. Incubate plates at 37C, 5% CO2, 95% RH for 24 h. 4. Reagent. Add 3uL CellTiter-Glo per well of Greiner 1536-well plates. 5. Incubation. Incubate plates at room temperature for 15 min., protect from light. 6. Detector. FLuc luminescence measured using CCD-based camera (Viewlux). NOTES (numbers refer to Sequence numbers above; values are from representative experiments) 6. Luminescence Read: Clear filter; Exposure = 1 sec, Gain = High, Speed = Slow, Binning = 2X REFERENCES: 1. Inglese J, Shamu CE and Guy RK, Reporting data from high throughput screening of small molecule libraries, Nature Chemical Biology, 2007, 3(8): 438-441. doi.org/10.1038/nchembio0807-438 2. Yasgar A, Shinn P, Jadhav A, Auld DS, Michael S, Zheng W, Austin CP, Inglese J and Simeonov A, Compound Management for Quantitative High-Throughput Screening. J. Assoc. Lab. Auto., 2008, 13: 79-89. doi: 10.1016/j.jala.2007.12.004
In general terms: Quantitative high-throughput screening tests each substance at several concentrations.
For the compound `COc1ccc(NC(=O)Cn2c(SCc3cc(C)ccc3C)nc3ccncc32)c(OC)c1OC`, the “activity change, negative = cytotoxicity” value is inactive: -13.8%.
The same measure for `COc1ccc2c(CNCc3cccs3)c(C(=O)O)n(Cc3ccccc3)c2c1`: inactive: 2.57%; for `CCOc1ccccc1NC(=O)Cn1cc(C(=O)c2cccc(OC)c2)c(=O)c2ccc(C)nc21`: inactive: 18.9%.
The same measure for `O=C(Cn1c(=O)c2cccn2c2ccccc21)NCCc1ccccc1`: inactive: -2.55%; for `CCOc1cc(CNC(=O)C2COc3ccccc3C2)cc(OCC)c1OCC` (configuration not stated): inactive: 4.18%; for `Fc1ccc(-c2noc3ncnc(NCCc4ccccc4)c23)cc1`: inactive: -3.76%.
The result for `COc1ccc(Nc2nc(-c3ccc(C)cc3)nc3ccccc23)c(OC)c1` reads inactive: -3.01%; that for `CCCCCn1c(C(C)NC(=O)c2ccccc2)nc2ccccc21` (configuration not stated), inactive: -0.71%; that for `CCOc1ccc(-c2nonc2NC(=O)COc2c(C)cc(C)cc2C)cc1OCC`, inactive: -3.11%.
Consider `COc1ccc2c(c1)c1c(c(=O)n(Cc3ccccc3)c(=O)n1CC(=O)NCc1ccccc1Cl)n2C`, for which the “activity change, negative = cytotoxicity” value is inactive: 3.47%.
The same measure for `Cc1ccc(C)c(N2CCN(C(c3ccccc3)c3nnc(-c4ccccc4F)o3)CC2)c1` (configuration not stated): inactive: 8.35%; for `CCOc1ccc(-c2ccc(NS(=O)(=O)c3ccc(C)cc3)cc2)nn1`: inactive: -3.95%; for `Cc1cccn2c(=O)c(/C=C(\C#N)c3nc4ccccc4[nH]3)c(Oc3ccc(C(C)(C)C)cc3)nc12`: inactive: 25%.
As for `O=C(CCc1nc(-c2cccs2)no1)Nc1cccc([N+](=O)[O-])c1`, the “activity change, negative = cytotoxicity” value is inactive: 9.48%.
The same measure for `CCOc1ccc(Sc2cc(C(=O)NC(C)c3ccccc3)c3ccccc3n2)cc1` (configuration not stated): inactive: 2.71%.
Consider `Cc1ccsc1CN(C(=O)COc1ccc(Br)cc1)C1CCS(=O)(=O)C1` (configuration not stated), for which the “activity change, negative = cytotoxicity” value was inactive: 4.66%.
The result for `Cc1ccc(OCC(=O)Nc2cc3nn(-c4ccccc4)nc3cc2C)cc1` reads inactive: 22.1%; that for `Cc1ccc(C(=O)Nc2ccc(NC(=O)c3cccs3)cc2)cc1C`, inactive: 5.72%.
Consider `Cc1cc(Cl)ccc1NC(=O)C(=O)NCc1ccco1`, for which the “activity change, negative = cytotoxicity” value is inactive: -18.4%.
The same measure for `Cc1ccc(OCC(=O)OCc2cc(=O)n3nc(-c4cccs4)sc3n2)cc1C`: inactive: -3.99%; for `Cc1ccc(-c2nc3n(n2)C(=O)CC(c2ccc(Cl)cc2)S3)cc1` (configuration not stated): inactive: -5.2%.
Regarding `Cc1cc(C)c(NC(=O)Cn2c(=O)n(-c3ccc(CC(=O)NCC4CCCO4)cc3)c(=O)c3ccccc32)c(C)c1` (configuration not stated), the “activity change, negative = cytotoxicity” value was inactive: 19.2%.
The result for `O=C(NCc1ccc(F)cc1)c1cc2n(n1)CCCN(Cc1ccc(F)cc1)C2=O` reads inactive: -8.35%.
With `Cc1ccc(C(=O)Nc2sc3c(c2C(=O)NCc2ccco2)CCC(C(C)(C)C)C3)cc1` (configuration not stated), the “activity change, negative = cytotoxicity” value is inactive: 13.8%.
The same measure for `COc1ccc(N(C(=O)c2cccc(C)c2)S(=O)(=O)c2ccc(Cl)cc2)cc1`: inactive: -1.03%; for `CCOc1cc(C(=O)N2CCn3c4c(c5cc(C)ccc53)CCCC42)cc(OCC)c1OCC` (configuration not stated): inactive: 17.3%; for `Fc1ccc2c(c1)-c1nc(-c3ccccc3)cc(-c3ccccc3)c1CO2`: inactive: 13.1%.

(Values after PubChem BioAssay AID1508642 (National Center for Advancing Translational Sciences (NCATS), 2021).)
